From the supplement of paper PMC3334620
Over roughly 33,000 sequences, “E-score (-0.5 to 0.5)” has its median near -0.032; the highest 2% begin near 0.36. Some of the results follow.

Target: T1, Sko1 (UniProt Q02100)
T1 sequence: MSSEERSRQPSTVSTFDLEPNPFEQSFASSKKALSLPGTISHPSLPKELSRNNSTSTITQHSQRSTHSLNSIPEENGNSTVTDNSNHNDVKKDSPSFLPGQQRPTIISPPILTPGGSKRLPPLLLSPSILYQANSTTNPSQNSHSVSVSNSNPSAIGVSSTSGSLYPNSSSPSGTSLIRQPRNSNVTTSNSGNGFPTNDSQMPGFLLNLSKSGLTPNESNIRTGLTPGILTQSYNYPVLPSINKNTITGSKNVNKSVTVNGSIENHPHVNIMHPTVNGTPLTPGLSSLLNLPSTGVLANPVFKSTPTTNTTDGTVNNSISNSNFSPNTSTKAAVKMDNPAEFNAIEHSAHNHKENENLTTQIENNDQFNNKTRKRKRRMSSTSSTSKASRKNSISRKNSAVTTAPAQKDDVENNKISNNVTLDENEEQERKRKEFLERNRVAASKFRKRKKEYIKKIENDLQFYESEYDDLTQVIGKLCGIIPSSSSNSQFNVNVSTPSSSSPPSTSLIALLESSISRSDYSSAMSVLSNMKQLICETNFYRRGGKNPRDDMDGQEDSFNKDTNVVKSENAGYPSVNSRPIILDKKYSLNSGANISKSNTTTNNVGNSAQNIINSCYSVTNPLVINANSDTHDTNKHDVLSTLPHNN
Assay: PBM E-score (8-mer binding enrichment) (E-score (-0.5 to 0.5)); higher = stronger / more preferred TF binding; most listed sequences are background and not binding sites
Conditions: protein concentration: 200 nM; construct: GST-full length
How it was run: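 Each ungapped eight-base word and its reverse complement, pooled, received an E-score from the Universal PBM Analysis Suite. Underlying scans, normalised with masliner, recorded fluorescent anti-GST bound to GST-tagged yeast transcription factors. These were applied at about 100-200 nM to universal all-10-mer Agilent arrays double-stranded by primer extension.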

Sequence	PBM E-score
CTGACAGA	0.0772
CGGAGACC	-0.309
CTATTAAG	-0.153
TCACGGAA	0.156
AGCCGCCA	-0.396
CGGGCTCA	-0.332
AAGCATCC	-0.175
GTGTTACA	0.0921
AAACGCTA	0.0383
GACGACAA	0.188
AGGCGATA	-0.204
GCCGTAGC	-0.328
CGTCAGAG	0.429
ATGTCCCG	-0.227
GGGCCTAC	-0.216
CACTGGCG	-0.133
CCTACAAA	-0.0324
GCACCACC	-0.221
ACCCGAGA	-0.227
AGACCCGG	-0.241
CGGTGAGA	0.0109
ACTGTGCT	-0.0224
CAATACAC	0.236
AAGCCGAA	-0.0554
ACTGACTA	0.0497

Sequence	PBM E-score
GTTTAATA	0.218
ACCTCTAT	-0.238
CCGTACCC	-0.335
CGCCGCCA	-0.168
AAAACCTA	0.168
AAGTAAAA	0.0455
AATCCAAG	0.0599
TCCGGACA	-0.0176
TACCTATA	0.0587
GCTCGTAA	0.231
GCCACTAA	-0.066
ACTCGGCA	-0.163
GCACACAA	0.0196
AAGTGTCA	-0.131
CAAATGTG	0.0776
AAGTGAAC	-0.0503
AGGGAGAT	-0.298
GTGCTCCA	0.00811
ACAAAAGC	-0.0688
ATGATACC	0.118
AACGCTGC	0.00058
GTAGGTGA	0.211
CGTAAGCC	0.203
TCAGATGA	0.179
AGTAATAG	0.264

Sequence	PBM E-score
AGGGGCCA	-0.333
CGATGGCC	-0.189
CTCGACTA	-0.153
CAGGGCAC	-0.107
GCAGTACC	-0.0592
ATCTGTAG	-0.0704
GCCACAGC	-0.259
TACACGGA	0.142
AAGCGACG	-0.0227
AACTCAAA	0.0306
TATCTAAA	0.0894
AAAAAGCC	-0.102
AGATTGTA	0.0877
ATGGGGAG	-0.0947
GGTTTCGA	-0.219
CCGGTAAG	-0.0749
GCGCTCTA	-0.155
TAACGCGA	0.0991
GATCGCGA	-0.0804
TGACGAAA	0.463
CTGTACAA	-0.0117
TACGGAGA	-0.00834
TAGAAGAA	-0.145
CCGAAGTA	-0.114
AGTTTTAT	0.185

Sequence	PBM E-score
CGCCATAC	0.245
CAAATAAC	0.33
AATCAACT	0.141
CAATGCCA	-0.128
CGTTCTTA	0.207
ACATCGCC	-0.0592
AACCATTC	-0.0657
CGACATAG	0.0941
TGGCATAA	0.215
GGGGCGAC	-0.228
TCCTGCAA	0.0258
CGTACGCA	0.332
CTGGAGAC	-0.00968
TGACTGCA	-0.0463
AAAAATTG	0.168
AAAGGACG	0.11
TGCATCAA	0.105
ATATAAAG	0.0959
GGCGCATA	-0.0137
CATGAGAC	-0.0597
CTCTGAAG	-0.182
CAAGACCG	-0.262
ACTGCCTC	-0.233
TGGCCTAA	0.0672
AACCGTCT	-0.239

Sequence	PBM E-score
ATCATCCA	0.013
CACATCGC	-0.0517
AAAACGTC	0.409
GATAGTAA	0.0985
GTCAAAAC	0.173
TATGTACA	0.254
AAAGCCAC	-0.0209
AGGCCCGC	-0.102
CCCACTAG	-0.271
GTGAGCTA	0.0389
AAGAAATC	-0.0158
CGCAGGTC	-0.194
CCCCGTGA	-0.166
GAGAATAA	0.0587
AAACTAGC	-0.135
GGATAAAC	0.124
GGTTACAA	-0.00351
AATACATA	0.24
AACGGGCG	-0.151
AACCTGCA	-0.11
AAAGCACA	0.0298
TATAAATA	0.298
GGGTTTAC	0.23
ATACGCCG	-0.00989
ATACCTAA	0.278

Sequence	PBM E-score
AGCGAGTA	-0.121
AGTGCCAA	-0.171
GGATGGCC	-0.329
CTGAGACC	-0.198
GATCTCAA	-0.0378
ACTGGCAC	-0.245
AGAGCGAA	-0.147
GCTCATGA	0.146
GAGGGGTA	-0.202
CATTAGAC	-0.0307
CGGCTACC	-0.175
AATGCGTC	0.185
CAGAGTAA	0.0459
GTTCCTTA	-0.086
ACGGGAAG	-0.217
CAGAGATA	0.0908
CTGGCTCC	-0.261
AGAGCCTC	-0.266
TCATCGCA	0.125
ACTAGCCC	-0.191
AGAGGCAG	-0.287
AATAGTGA	0.124
AGGGAGTG	-0.143
AGCACGTG	0.397
AACTGTAT	0.0129

Sequence	PBM E-score
CCTCATAG	0.1
GCTAGTAC	0.0207
CCAGGAAG	-0.0879
TATCCTCA	-0.0101
AGGCAACT	0.158
AACGAAAT	0.261
AAGGGACC	-0.26
GCGGGTAC	-0.0713
ACGGTAAG	-0.076
CAACCGAA	0.0842
ACAACACA	0.145
AGAATGGC	0.0313
ACAGCCAT	0.0326
AATGGGGG	-0.334
AGTTCGAT	-0.029
AAGAAAGC	-0.0127
AACTCCGT	-0.0262
ACAGAGAT	0.168
CACGCACG	0.204
ATTTTGCC	-0.0624
ATTGGGTG	0.0341
ACCGTGGG	-0.239
TGCAGTAA	-0.0626
CATCGTGG	-0.173
GTCCGGAA	-0.102

Sequence	PBM E-score
ACTAGGCA	-0.0299
AGGTCGCA	-0.239
AGGAGGGA	-0.3
GTTTCAAA	0.116
AGATAAAT	0.127
GACACCAC	-0.0851
ACATACTC	0.0979
AATGTAGC	-0.177
ACGGCAGC	-0.123
CGTAGTGA	0.307
GTCACTCA	0.296
CAGGCGGA	-0.17
TAAAGAGA	0.0871
ACTGCGTG	0.131
GCAATCTA	0.0367
CAGCGATC	-0.12
TGATAACA	0.285
GCAGCTCA	-0.116
CCACCTGA	-0.0745
GGAACGCC	-0.256
ACGGCCTG	-0.186
AACACCGC	-0.196
AAAATCAA	0.0427
AGTTCGGA	-0.198
ATCACTAC	0.162

Sequence	PBM E-score
TGTCTTAA	-0.00601
ATTTGCAA	0.122
CTGGTCTC	-0.342
GAACTGAC	0.0788
ACCCATTG	-0.145
ACGTTGCC	0.185
GCAACCAC	-0.0517
AGTTGGAG	-0.0727
CCACTAAA	-0.0135
ACAACGCA	0.205
AATACCCC	-0.21
ATTTGATC	-0.0325
CGCCTCAG	-0.182
CCTAGAAC	-0.101
AAAACCAG	-0.0997
ATGGAATA	0.131
CCTATCTA	-0.0869
ATCCGTCG	-0.197
TAATCCCA	-0.00312
